# Test results from the supplement of paper PMC11369174, “Proteome-scale characterisation of motif-based interactome rewiring by disease mutations” (Molecular Systems Biology, 2024).
# The other results are listed elsewhere or left out. These are enrichments in a pooled selection; single values are uncertain.
# T1: TERF1_TRF__P54274_58_268
# T1 chain: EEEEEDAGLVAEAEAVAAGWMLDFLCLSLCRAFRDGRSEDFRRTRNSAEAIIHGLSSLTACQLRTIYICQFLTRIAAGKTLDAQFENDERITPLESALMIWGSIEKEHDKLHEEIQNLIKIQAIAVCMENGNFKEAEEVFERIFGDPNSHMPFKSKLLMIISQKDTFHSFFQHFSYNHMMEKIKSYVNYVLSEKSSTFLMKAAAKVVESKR
# T2: TLN2_PTB__Q9Y4G6_312_417
# T2 chain: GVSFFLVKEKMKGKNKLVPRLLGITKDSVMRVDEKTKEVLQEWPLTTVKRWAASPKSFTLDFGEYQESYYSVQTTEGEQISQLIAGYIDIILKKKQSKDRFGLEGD
# T3: SPOP_MATH__O43791_19_176
# T3 chain: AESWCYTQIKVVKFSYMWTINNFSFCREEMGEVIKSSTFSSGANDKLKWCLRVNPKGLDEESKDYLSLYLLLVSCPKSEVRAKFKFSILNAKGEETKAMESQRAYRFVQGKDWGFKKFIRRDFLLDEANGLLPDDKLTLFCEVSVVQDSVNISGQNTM
# T4: TLN1_PTB__Q9Y490_309_401
# T4 chain: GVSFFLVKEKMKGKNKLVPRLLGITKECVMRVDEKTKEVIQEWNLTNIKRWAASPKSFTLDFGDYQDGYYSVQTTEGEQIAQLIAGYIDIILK
# Key:
# Assay in all cases: mean normalised NGS count of phage-displayed peptide after selection on bait (% of reads); baits are purified protein domains named by gene / domain / UniProt id / residues; peptides come from disordered regions of human proteins; higher = stronger enrichment / binding
# [1] = target: Src_SH3__P12931_87_144
# [2] = target: T1, TERF1_TRF__P54274_58_268
# [3] = target: T2, TLN2_PTB__Q9Y4G6_312_417
# [4] = target: T3, SPOP_MATH__O43791_19_176
# [5] = target: T4, TLN1_PTB__Q9Y490_309_401
# [6] = replicate selections in which the peptide was seen: 5
# [7] = replicate selections in which the peptide was seen: 3
# [8] = replicate selections in which the peptide was seen: 4
# [9] = replicate selections in which the peptide was seen: 6
# [10] = replicate selections in which the peptide was seen: 2
binder,measurement,setting,value
SVPAPLPSPPAGTLTA [CACNA1H 680-695 wt],mean normalised NGS count,[1]; [6],0.067
WGELEVQRVKFLNYLS [RYR1 4542-4557 wt],mean normalised NGS count,[2]; [6],20.4
PFVPGGPPPITLPTAP [RERE 1038-1053 mut Q9P2R6.P1049L],mean normalised NGS count,[1]; [7],0.909
TELRAVMDWVWMDTTL [PIEZO2 2345-2360 mut Q9H5I5.T2356M],mean normalised NGS count,[3]; [8],14.3
QLPKVPEMKLPKMPEM [PRX 658-673 wt],mean normalised NGS count,[1]; [8],0.00865
ALSPGVSTSGISISQG [ARID1A 656-671 mut O14497.S668I],mean normalised NGS count,[4]; [9],1.82
EDLQLSPIAPEERLLA [EPAS1 538-553 mut Q99814.F540L],mean normalised NGS count,[2]; [10],0.0376
LQPAHGLSASPTVSSS [HNF1A 578-593 mut P20823.R583G],mean normalised NGS count,[4]; [8],0.0859
LNRMVIWHYPGEEVNA [FLVCR2 331-346 wt],mean normalised NGS count,[3]; [10],0.103
ADSTVVMEEGSPGEVP [TSC2 1294-1309 mut P49815.A1297T],mean normalised NGS count,[4]; [6],0.245
KPPPLPRSNTVASFFS [TSC2 1262-1277 mut P49815.S1276F],mean normalised NGS count,[1]; [9],0.494
VTSSVLPDSWAALALA [GATA6 580-595 mut Q92908.R585L],mean normalised NGS count,[4]; [6],0.323
AGDSRGRQYQELPRAP [KCNH2 1001-1016 mut Q12809.W1001C],mean normalised NGS count,[1]; [7],0.109
EDFQLSPIAPEERLLA [EPAS1 538-553 wt],mean normalised NGS count,[2]; [7],26
ALPSTWIENKLAGMSD [RET 1051-1066 mut P07949.Y1062C],mean normalised NGS count,[3]; [6],0.0291
YLSLLPVATFKGWMDI [SCN1A 1422-1437 mut P35498.Q1427P],mean normalised NGS count,[2]; [7],0.263
ELEVQRVKFLNYLSRN [RYR1 4544-4559 wt],mean normalised NGS count,[2]; [9],0.362
QLSPIQLPQSSSGNTI [SALL1 315-330 mut Q9NSC2.P317S],mean normalised NGS count,[4]; [8],0.076
EEDGVSSTSPMEVLDR [TSC1 636-651 mut Q92574.P641S],mean normalised NGS count,[4]; [8],6.11
RQLPYAPSVESPYSKS [CTNND2 504-519 mut Q9UQB3.Q507P],mean normalised NGS count,[1]; [7],0.0234
ALPSTWIENKPYGMSD [RET 1051-1066 mut P07949.L1061P],mean normalised NGS count,[5]; [6],0.0603
STTAPPVQTPLPVIPH [LDB3 90-105 wt],mean normalised NGS count,[1]; [8],0.00826
SLPELPLQTKDAADGE [ANKRD11 2137-2152 wt],mean normalised NGS count,[1]; [6],0.873
RENLKVWIYPEGTRND [AGPAT2 162-177 wt],mean normalised NGS count,[3]; [7],0.00406
VSSSSLVLYQSSDSSN [HNF1A 590-605 wt],mean normalised NGS count,[4]; [8],0.22
LTVRNPNIVSSSSNTR [FSHR 554-569 mut P23945.D567N],mean normalised NGS count,[4]; [6],0.264
AVPSTWIENKLYGMSD [RET 1051-1066 mut P07949.L1052V],mean normalised NGS count,[5]; [9],32
same,mean normalised NGS count,[3]; [6],0.751
YNASVSVPDSSGPEHI [HNRNPK 72-87 mut P61978.R86H],mean normalised NGS count,[4]; [6],2.64
EGVPLISLPAVPQGGS [SZT2 1830-1845 mut Q5T011.R1839C],mean normalised NGS count,[1]; [8],0.0649
APYIPMDGEDFQLSPI [EPAS1 530-545 wt],mean normalised NGS count,[2]; [8],0.183
VLPSLPAIPPTNAMGL [MYPN 833-848 wt],mean normalised NGS count,[1]; [6],0.676
RMVIWHYPGEEVNAGR [FLVCR2 333-348 wt],mean normalised NGS count,[5]; [9],68.1
YLSLLPVATFKGWMDI [SCN4A 1422-1437 mut P35498.Q1427P],mean normalised NGS count,[2]; [7],0.263
EPPLPPGRVTLVDVTR [TTN 26221-26236 wt],mean normalised NGS count,[1]; [6],0.0433
APYILMDGEDFQLSPI [EPAS1 530-545 mut Q99814.P534L],mean normalised NGS count,[2]; [8],8.16
SLPELPLQTQDAADGE [ANKRD11 2137-2152 mut Q6UB99.K2146Q],mean normalised NGS count,[1]; [8],0.14
ALPSTWIENKLYGTSD [RET 1051-1066 mut P07949.M1064T],mean normalised NGS count,[5]; [9],2.72
same,mean normalised NGS count,[3]; [9],1.83
AFSGSLLPVKPVEIEI [XPC 152-167 mut Q01831.R155G],mean normalised NGS count,[2]; [10],0.00308
PPPPLPPQQHQPAQPG [KCNC3 32-47 mut Q14003.Q41H],mean normalised NGS count,[1]; [10],0.208
ALPSTWIENKLYGMSD [RET 1051-1066 wt],mean normalised NGS count,[5]; [9],113
same,mean normalised NGS count,[3]; [9],77
DLPERIMMNWVSSRLG [ORC1 657-672 mut Q13415.R666W],mean normalised NGS count,[5]; [6],1.51
SSVIHYDDKAIERLLD [CHD4 1244-1259 wt],mean normalised NGS count,[2]; [10],13.6
ALSPGVSTSGISSSQG [ARID1A 656-671 wt],mean normalised NGS count,[4]; [9],9.23
YLSLLPVATFKGWMDI [SCN2A 1422-1437 mut P35498.Q1427P],mean normalised NGS count,[2]; [7],0.263
LNPMVIWHYPGEEVNA [FLVCR2 331-346 mut Q9UPI3.R333P],mean normalised NGS count,[5]; [8],5.17
same,mean normalised NGS count,[3]; [8],0.767
SLTLPPIPAGISNMAV [GLI2 1550-1565 mut P10070.S1555P],mean normalised NGS count,[1]; [6],3.8
HVQELLVKRFQHTIRS [ABCA4 1354-1369 mut P78363.A1357E],mean normalised NGS count,[2]; [9],22.6
TWIENKLYGTSDPNWP [RET 1055-1070 mut P07949.M1064T],mean normalised NGS count,[5]; [8],6.69
same,mean normalised NGS count,[3]; [7],1.12
ADPYRQLPYAPSVESP [CTNND2 500-515 mut Q9UQB3.Q507P],mean normalised NGS count,[1]; [8],0.0682
SSVKVTSSIPVFDLQD [POGZ 356-371 mut Q7Z3K3.M358V],mean normalised NGS count,[4]; [8],0.217
TVAELVEAHTNFGFQP [SCNN1B 577-592 wt],mean normalised NGS count,[4]; [6],0.324
PPPPLPPQQQQPAQPG [KCNC3 32-47 wt],mean normalised NGS count,[1]; [6],0.922
LTVRNPNIVSSSSDTR [FSHR 554-569 wt],mean normalised NGS count,[4]; [9],22.4
TPLPVIPHQKDPALDT [LDB3 98-113 wt],mean normalised NGS count,[1]; [10],0.0772
PLPSPPAGTLTAELKS [CACNA1H 684-699 wt],mean normalised NGS count,[1]; [6],0.0246
EVTTTTTTITEKHKLN [ANK2 819-834 wt],mean normalised NGS count,[4]; [8],1.23
